The inconclusive results got no clear call from the source; some entries with a clear call stand among them for comparison. For some assays here: A potency beside an inconclusive call is a rough fit, not a confirmed value. Active and inactive are the calls of the source. Unless noted, calls come from the whole dose curve; as a rule, active = well fitted curve in the direction sought with a large enough effect in the repeat runs; inconclusive = weak or mixed curves; inactive = no such curve, though single readings can be large; an effect the other way counts as inactive or inconclusive.
Tests used:
[1] = molecular target: Peroxisome proliferator-activated receptor delta (Homo sapiens) (UniProt Q03181); assay: qHTS assay to identify small molecule agonists of the peroxisome proliferator-activated receptor delta (PPARd) signaling pathway (AID 743212; calls by dose curve; note: potency is the fitted concentration of half-maximal effect; for activation: % is set by controls: 0 for no effect and ±100 for the full control effect); conditions: HEK293H PPARd-UAS-bla, beta-lactamase FRET ratio, 17 h; activation: at 62.6 µM (top of the series) unless noted
UniProt Q03181, sequence (Q03181 whole entry, looked up): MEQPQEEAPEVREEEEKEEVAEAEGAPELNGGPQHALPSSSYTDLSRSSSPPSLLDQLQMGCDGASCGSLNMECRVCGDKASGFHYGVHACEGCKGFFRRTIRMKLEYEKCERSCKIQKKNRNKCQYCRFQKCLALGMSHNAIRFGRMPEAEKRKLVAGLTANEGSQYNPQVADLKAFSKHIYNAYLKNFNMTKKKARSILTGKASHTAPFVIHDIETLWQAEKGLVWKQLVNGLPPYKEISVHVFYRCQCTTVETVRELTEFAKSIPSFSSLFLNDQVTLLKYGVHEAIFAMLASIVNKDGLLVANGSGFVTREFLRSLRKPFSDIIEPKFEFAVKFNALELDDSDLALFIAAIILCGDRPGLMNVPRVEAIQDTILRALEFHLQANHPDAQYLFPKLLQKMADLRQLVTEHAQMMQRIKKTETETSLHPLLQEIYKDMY
Method in brief: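 GeneBLAzer UAS-bla HEK293H cells carrying a PPARδ construct were exposed to compounds at 37 °C. Beta-lactamase activity was read by FRET fluorescence after 2 h at room temperature with LiveBLAzer B/G substrate.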

[2] = qHTS assay to identify small molecule antagonists of the peroxisome proliferator-activated receptor delta (PPARd) signaling pathway - cell viability counter screen (AID 743213); conditions: PPARd-bla HEK293H viability, CellTiter-Glo luminescence, 17 h; viability change, negative = cytotoxic: at 62 µM (top of the series) unless noted; note: potency is the fitted concentration of half-maximal effect; nearly all actives have a fitted effect of over 50% in size
Method in brief: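 In this counter screen, HEK293H cells carrying a UAS-beta-lactamase reporter are co-treated with test compounds and 300 nM L165041 (final) for 17 h at 37 C; cell viability is quantified by CellTiter-Glo luminescence.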

[3] = molecular target: Peroxisome proliferator-activated receptor delta (Homo sapiens) (UniProt Q03181); assay: qHTS assay to identify small molecule antagonists of the peroxisome proliferator-activated receptor delta (PPARd) signaling pathway (AID 743215; active = well fitted inhibition curve with a large enough effect in the signal ratio in the repeat runs, not every such curve was filed as active; inconclusive = weak or mixed curves, or effect the other way; inactive = no such curve, though single readings can be large or run the other way; the % refers to the signal ratio;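 note: cells stimulated with agonist L165041 at 300 nM final during compound exposure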; note: potency is the fitted concentration of half-maximal effect; for ratio activity, negative = inhibition: % is set by controls: 0 for no effect and ±100 for the full control effect); conditions: HEK293H PPARd-UAS-bla, beta-lactamase FRET ratio, antagonist, 17 h; ratio activity, negative = inhibition: at 62 µM (top of the series) unless noted
Method in brief: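 With L165041 present at 300 nM final, compounds were incubated 17 h at 37 C on PPARd UAS-bla HEK293H cells. A FRET-based beta-lactamase substrate was then applied for 2 h at room temperature and fluorescence intensity recorded.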

[4] = molecular target: Vitamin D3 receptor (Homo sapiens) (UniProt P11473); assay: qHTS assay to identify small molecule agonists of the vitamin D receptor (VDR) signaling pathway (AID 743222; calls by dose curve; note: potency is the fitted concentration of half-maximal effect); conditions: HEK293T VDR-UAS-bla, beta-lactamase FRET ratio, 16 h; activation: at 63.5 µM (top of the series) unless noted
UniProt P11473, sequence (P11473 whole entry, looked up): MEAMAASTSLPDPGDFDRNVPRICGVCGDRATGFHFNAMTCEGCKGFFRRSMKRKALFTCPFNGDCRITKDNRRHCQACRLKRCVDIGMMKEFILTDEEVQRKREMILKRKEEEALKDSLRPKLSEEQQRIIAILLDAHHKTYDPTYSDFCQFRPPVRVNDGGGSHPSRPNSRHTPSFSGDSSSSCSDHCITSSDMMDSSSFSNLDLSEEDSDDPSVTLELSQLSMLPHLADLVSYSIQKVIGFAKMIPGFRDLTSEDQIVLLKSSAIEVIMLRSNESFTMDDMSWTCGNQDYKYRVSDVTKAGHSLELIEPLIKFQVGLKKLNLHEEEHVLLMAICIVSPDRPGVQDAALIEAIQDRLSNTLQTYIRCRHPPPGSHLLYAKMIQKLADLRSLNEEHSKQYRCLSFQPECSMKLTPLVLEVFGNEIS
Method in brief: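 VDR-bla cells were seeded, left 4 h, treated with compounds in DMSO for 16 h, incubated 2 h at RT with B/G FRET substrate, and read for fluorescence.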

[5] = molecular target: Vitamin D3 receptor (Homo sapiens) (UniProt P11473); assay: qHTS assay to identify small molecule antagonists of the vitamin D receptor (VDR) signaling pathway (AID 743223; active = well fitted inhibition curve with a large enough effect in the signal ratio in the repeat runs, not every such curve was filed as active; inconclusive = weak or mixed curves, or effect the other way; inactive = no such curve, though single readings can be large or run the other way; the % refers to the signal ratio; note: potency is the fitted concentration of half-maximal effect; for activity change, negative = inhibition: % is set by controls: 0 for no effect and ±100 for the full control effect); conditions: VDR-UAS-bla HEK293T, beta-lactamase FRET ratio, 16 h; activity change, negative = inhibition: at 61 µM (top of the series) unless noted
Method in brief: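 VDR-bla cells were plated, incubated 4 h at 37C, then given compound and 1alpha,25-dihydroxyvitamin D3 (3 nM final). After 16 h at 37C, LiveBLAzer B/G FRET substrate was added for 2 h at room temperature and fluorescence read.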

[6] = qHTS assay to identify small molecule agonists of the vitamin D receptor (VDR) signaling pathway - cell viability counter screen (AID 743224); conditions: VDR-bla HEK293T viability, CellTiter-Glo luminescence, 16 h; activity change, negative = cytotoxicity: at 62.6 µM (top of the series); note: potency is the fitted concentration of half-maximal effect; nearly all actives have a fitted effect of over 50% in size
Method in brief: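 Here cell health was gauged by luminescent ATP detection (CellTiter-Glo, 30 min RT) in VDR-bla cells that had been incubated with test compounds for 16 h at 37C and 5% CO2.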

[7] = qHTS assay to identify small molecule antagonists of the vitamin D receptor (VDR) signaling pathway - cell viability counter screen (AID 743225); conditions: VDR-bla HEK293T viability, CellTiter-Glo luminescence, 16 h; viability change, negative = cytotoxic: at 61 µM (top of the series) unless noted; note: nearly all actives have a fitted effect of over 50% in size; note: potency is the fitted concentration of half-maximal effect
Method in brief: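 VDR-bla HEK 293T cells, 4 h pre-incubation at 37C, then compound plus 1-alpha,25-dihydroxyvitamin D3 (3 nM final) for 16 h. After the beta-lactamase FRET read, CellTiter-Glo was added to the same wells; luminescence after 30 min at room temperature.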

[8] = qHTS assay to identify small molecule agonists of the endoplasmic reticulum stress response signaling pathway (AID 1159516; active = well fitted activation curve with a large enough effect in the signal ratio in the repeat runs, not every such curve was filed as active; inconclusive = weak or mixed curves, or effect the other way; the % refers to the signal ratio; note: potency is the fitted concentration of half-maximal effect); conditions: ESRE-bla HeLa, ER stress beta-lactamase reporter, 5 h; activation: at 61 µM (top of the series) unless noted
Method in brief: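 Reporter HeLa cells (ESRE-beta-lactamase) underwent 5 hr compound incubation at 37 C and 5% CO2 in quantitative HTS format. Detection followed 2 hr of FRET substrate loading at room temperature.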

[9] = qHTS assay to identify small molecule antagonists of the retinoid-related orphan receptor gamma (ROR-gamma) signaling pathway - cell viability counter screen (AID 1159520); conditions: Tet-on RORgamma CHO cells viability, ATP luminescence, 16 h; series mostly up to 92.4 µM; note: potency is the fitted concentration of half-maximal effect; nearly all actives have a fitted effect of over 50% in size
Method in brief: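 Tet-on ROR gamma CHO cells were given compounds for 2 hr, then doxycycline hyclate at 1 uM final, and incubated 16 hr at 37 C. Viability was measured as ATP content by CellTiter-Glo luminescence.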

[10] = qHTS assay to identify small molecule agonists of the AP-1 signaling pathway - cell viability counter screen (AID 1159525; calls by dose curve; note: nearly all actives have a fitted effect of over 55% in size); conditions: ME-180 AP-1-bla cells viability, ATP luminescence, 5 h; series mostly up to 76.8 µM
Method in brief: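 AP-1-bla ME-180 cells in Opti-MEM with 0.5% dialyzed FBS, compound exposure 5 h at 37 C in 15-point titration. Viability read in the same wells as ATP content by CellTiter-Glo luminescence, normalised to tetra-n-octylammonium bromide and DMSO controls.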

[11] = qHTS assay to identify small molecule agonists of the AP-1 signaling pathway (AID 1159526; calls by dose curve; note: potency is the fitted concentration of half-maximal effect); conditions: ME-180 (cervical carcinoma) AP-1-bla reporter, beta-lactamase FRET ratio, 5 h; activation: at 76.8 µM (top of the series) unless noted
[12] = molecular target: Retinoic acid receptor RXR-alpha (Homo sapiens) (UniProt P19793); assay: qHTS assay to identify small molecule agonists of the RXR signaling pathway (AID 1159527; calls by dose curve; note: nearly all actives have a fitted effect of over 35% in size; note: potency is the fitted concentration of half-maximal effect; for activation: % is set by controls: 0 for no effect and ±100 for the full control effect); conditions: HEK293T RXRa-UAS-bla, beta-lactamase ratio, 16 h; activation: at 76.8 µM (top of the series) unless noted
UniProt P19793, sequence (P19793 whole entry, looked up): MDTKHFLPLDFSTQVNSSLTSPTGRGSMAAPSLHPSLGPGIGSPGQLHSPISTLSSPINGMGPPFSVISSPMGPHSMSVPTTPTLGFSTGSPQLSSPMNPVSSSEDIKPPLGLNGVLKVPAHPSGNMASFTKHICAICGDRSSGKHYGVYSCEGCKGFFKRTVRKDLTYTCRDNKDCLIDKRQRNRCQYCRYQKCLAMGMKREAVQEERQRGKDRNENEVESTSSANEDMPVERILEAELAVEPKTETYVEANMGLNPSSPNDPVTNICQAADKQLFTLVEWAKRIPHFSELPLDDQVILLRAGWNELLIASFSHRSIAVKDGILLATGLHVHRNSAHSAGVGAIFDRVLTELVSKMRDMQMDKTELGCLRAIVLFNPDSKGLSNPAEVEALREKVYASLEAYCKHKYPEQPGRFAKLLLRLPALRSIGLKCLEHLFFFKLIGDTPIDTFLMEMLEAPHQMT
Method in brief: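 GeneBLAzer RXR-alpha-UAS-bla HEK 293T cells in medium with 2% charcoal-stripped FBS, pre-incubated 5 hr at 37 C, then exposed to compounds 16 hr. Beta-lactamase reporter read by FRET substrate, 2 hr room temperature, 460/530 nm emission.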

[13] = molecular target: Nuclear receptor ROR-gamma (Homo sapiens) (UniProt P51449); assay: qHTS assay to identify small molecule antagonists of the retinoid-related orphan receptor gamma (ROR-gamma) signaling pathway (AID 1159521; note: nearly all actives have a fitted effect of over 50% in size; note: potency is the fitted concentration of half-maximal effect); conditions: Tet-on RORgamma CHO cells, RORE-luciferase, 16 h; series mostly up to 92.4 µM
Method in brief: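 Tet-on RORγ CHO cells carrying a ROR response element–luciferase reporter were pretreated with compounds for 2 h, then induced with 1 uM (final) doxycycline hyclate for 16 h at 37 C. Antagonism was read as decreased ONE-Glo luminescence.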

[14] = qHTS assay to identify small molecule agonists of the RXR signaling pathway - cell viability counter screen (AID 1159529); conditions: RXR-alpha-bla HEK293T viability, CellTiter-Glo, 16 h; series mostly up to 76.8 µM
Method in brief: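 RXR-alpha-UAS-bla HEK 293T cells in medium with 2% charcoal-stripped FBS were preincubated 5 hr, then exposed to compounds for 16 hr at 37 C. Viability was read as CellTiter-Glo luminescence after 30 min at room temperature.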

[15] = qHTS assay to identify small molecule agonists of the farnesoid-X-receptor (FXR) signaling pathway - cell viability counter screen (AID 743218); conditions: FXR-bla HEK293T viability, CellTiter-Glo luminescence, 16 h; viability change, negative = cytotoxic: at 62.6 µM (top of the series) unless noted; note: potency is the fitted concentration of half-maximal effect; nearly all actives have a fitted effect of over 45% in size
Method in brief: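 After 16 h at 37 C with test compounds, FXR-bla HEK 293T cells were given LiveBLAzer B/G substrate for 2 h at RT and then CellTiter-Glo; luminescence was taken after 30 min.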

[16] = molecular target: Bile acid receptor (Homo sapiens) (UniProt Q96RI1); assay: qHTS assay to identify small molecule agonists of the farnesoid-X-receptor (FXR) signaling pathway (AID 743220; active = well fitted activation curve with a large enough effect in the signal ratio in the repeat runs, not every such curve was filed as active; inconclusive = weak or mixed curves, or effect the other way; the % refers to the signal ratio; note: potency is the fitted concentration of half-maximal effect); conditions: HEK293T FXR-UAS-bla, beta-lactamase FRET ratio, 16 h; activation: at 62.6 µM (top of the series) unless noted
UniProt Q96RI1, sequence (Q96RI1 whole entry, looked up): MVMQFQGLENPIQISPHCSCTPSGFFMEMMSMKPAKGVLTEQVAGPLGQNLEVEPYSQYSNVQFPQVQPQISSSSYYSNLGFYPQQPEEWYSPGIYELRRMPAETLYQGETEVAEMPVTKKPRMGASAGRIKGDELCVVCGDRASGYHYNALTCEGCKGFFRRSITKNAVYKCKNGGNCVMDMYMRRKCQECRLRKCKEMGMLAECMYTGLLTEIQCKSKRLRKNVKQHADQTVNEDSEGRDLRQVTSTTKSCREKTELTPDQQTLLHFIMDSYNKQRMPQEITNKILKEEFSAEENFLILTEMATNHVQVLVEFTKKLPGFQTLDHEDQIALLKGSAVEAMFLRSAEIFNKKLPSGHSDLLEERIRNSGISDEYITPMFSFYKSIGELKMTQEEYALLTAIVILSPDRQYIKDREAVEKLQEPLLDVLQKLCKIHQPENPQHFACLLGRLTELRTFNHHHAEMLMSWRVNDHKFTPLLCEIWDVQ
Method in brief: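 Beta-lactamase reporter under UAS control in GeneBLAzer FXR HEK 293T cells (5000/well) measured with LiveBLAzer FRET substrate after 2 h at room temperature. Compound exposure lasted 16 h at 37C.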

[17] = molecular target: Bile acid receptor (Homo sapiens) (UniProt Q96RI1); assay: qHTS assay to identify small molecule antagonists of the farnesoid-X-receptor (FXR) signaling pathway (AID 743217; active = well fitted inhibition curve with a large enough effect in the signal ratio in the repeat runs, not every such curve was filed as active; inconclusive = weak or mixed curves, or effect the other way; inactive = no such curve, though single readings can be large or run the other way; the % refers to the signal ratio; note: potency is the fitted concentration of half-maximal effect); conditions: HEK293T FXR-UAS-bla, beta-lactamase ratio, CDCA-stimulated, 16 h; activity change, negative = inhibition: at 62.6 µM (top of the series) unless noted
Method in brief: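 In this cell-based antagonist screen, inhibition of CDCA-driven (50 uM final) UAS-beta-lactamase expression in HEK 293T cells was measured by FRET fluorescence following 16 h compound exposure at 37 °C.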

[18] = qHTS assay to identify small molecule antagonists of the retinoid acid receptor (RAR) signaling pathway - cell viability counter screen (AID 1159551); conditions: C3RL4 cells viability, ATP luminescence (CellTiter-Glo), 6 h; series mostly up to 92.4 µM; note: potency is the fitted concentration of half-maximal effect; nearly all actives have a fitted effect of over 35% in size
Method in brief: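 Seed C3RL4 cells; next day add compound, then retinol to 1 uM final; incubate 6 h at 37 C; add CellTiter-Glo; read luminescence after 30 min at RT.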
Tags give direction and shape of the fitted curve or compound fluorescence and quenching.

Oc1ccc(N=Nc2ccccc2)cc1
inconclusive: Potency [2] 0.557 µM [cytotoxic, partial curve, poor fit] | Potency [4] 55.7 µM [inhibitor, single point] | activity change, negative = inhibition [5] -34.4% [at 78.8 µM] | Potency [6] 55.7 µM [cytotoxic, single point] | Potency [7] 55.7 µM [cytotoxic, single point] | Potency [8] 39.4 µM [cytotoxic, partial curve] | Potency [9] 55.2 µM [cytotoxic, partial curve] | Potency [11] 55.7 µM [falling, partial curve, poor fit] | activation [12] -20%
inactive: Potency [1] | Potency [3] | Potency [10]

Nc1nc2c(ncn2COCCO)c(=O)[nH]1
inconclusive: Potency [8] 0.0008 µM

O=C(O)COc1ccc2ccccc2c1
inactive: Potency [8]

CS(=O)(=O)c1ccc([C@@H](O)[C@@H](CF)NC(=O)C(Cl)Cl)cc1
inactive: Potency [8]

CCCCN(CCCC)C(C(N)=O)c1ccc(OC)cc1 (stereo unspecified)
inconclusive: Potency [8] 23.9 µM [falling, single point]

CC(=O)OCCC1CCCCC1
inconclusive: Potency [8] 24.5 µM [activator, single point]

NC(=O)CCCCC(N)=O
inconclusive: Potency [8] 1.96 µM [rising, partial curve]

ON=C1CCCC1
inconclusive: Potency [6] 28.5 µM [rising, partial curve, poor fit] | Potency [8] 63.8 µM [fluorescent, single point] | Potency [9] 71 µM [cytotoxic, partial curve, poor fit] | Potency [13] 71 µM [inhibitor, single point] | Potency [14] 9.01 µM [cytotoxic, partial curve, poor fit]
inactive: Potency [12]

CCC(CO)(CO)[N+](=O)[O-]
inconclusive: Potency [8] 6.92 µM [rising, partial curve, poor fit]

O=C(O)c1c(Cl)cccc1Cl
inconclusive: Potency [8] 0.0027 µM [falling, full curve] | Potency [9] 0.6 µM [cytotoxic, single point]

O=C(O)CN1C(=O)c2cccc3cccc(c23)C1=O
inconclusive: Potency [8] 9.52 µM [rising, partial curve, poor fit]

c1ccc(SSc2ccccc2)cc1
inconclusive: Potency [1] 13.9 µM [rising, full curve, poor fit] | Potency [15] 22 µM [cytotoxic, partial curve, poor fit] | activity change, negative = inhibition [5] -3.55% [at 78.8 µM] | Potency [9] 34.6 µM [cytotoxic, partial curve] | Potency [11] 12.4 µM | Potency [12] 4.93 µM [rising, full curve]
inactive: Potency [7] | Potency [8] | Potency [13]

COc1cc(C(=S)N2CCOCC2)cc(OC)c1OC
inactive: Potency [8]

IC(I)I
inconclusive: Potency [16] 24.5 µM [activator, single point] | activation [8] 4.79% | Potency [9] 0.433 µM [cytotoxic, partial curve, poor fit] | Potency [13] 3.86 µM [inhibitor, full curve] | Potency [11] 54.9 µM | activation [11] 17.9% | Potency [12] 6.92 µM [activator, partial curve, poor fit]

C[C@H]1c2cccc(O)c2C(O)=C2C(=O)[C@]3(O)C(O)=C(C(N)=O)C(=O)[C@@H](N(C)C)[C@@H]3[C@@H](O)[C@@H]21
active: Potency [13] 29.8 µM
inconclusive: Potency [1] 33.5 µM | Potency [3] 33.5 µM | Potency [17] 33.5 µM [rising, partial curve, poor fit] | activation [16] 0.135% | Potency [4] 29.8 µM | Potency [5] 26.8 µM [rising, single point] | Potency [8] 23.9 µM | Potency [9] 33.5 µM [cytotoxic, partial curve, poor fit] | activation [11] -18% [at 35.3 µM] | Potency [12] 23.9 µM [fluorescent, partial curve]

Nc1ccc(NCCO)c([N+](=O)[O-])c1
inconclusive: Potency [9] 61.1 µM [cytotoxic, partial curve, poor fit] | Potency [13] 38.6 µM [inhibitor, partial curve, poor fit] | Potency [18] 43.3 µM [cytotoxic, partial curve]
inactive: Potency [8]

O=C1CCCc2c1cc1ccc3cccc4ccc2c1c34
active: Potency [1] 49.6 µM | Potency [4] 19.7 µM | Potency [11] 22.2 µM
inconclusive: Potency [3] 19.7 µM [activator, partial curve] | Potency [17] 55.6 µM [fluorescent, single point] | Potency [15] 62.4 µM [cytotoxic, single point] | Potency [16] 55.6 µM [fluorescent] | Potency [8] 55.6 µM [fluorescent, partial curve] | Potency [9] 19.6 µM [cytotoxic, partial curve, poor fit] | Potency [13] 8.74 µM [inhibitor, full curve] | activation [12] -14.2%
